Measured values published in PubChem BioAssay AID588591 (National Center for Advancing Translational Sciences (NCATS), 2011).
The campaign covered roughly 390,000 compounds. About 4,700 (1.2%) were called active. This list was built around the results that the source calls inconclusive (neither active nor inactive); the mix of calls is not that of the screen. Calls follow the shape of the dose curve; as a rule, active = well fitted inhibition curve with a large enough effect; inconclusive = small, poorly fitted or top-dose-only effect, or another doubt; inactive = no such curve, though single readings can be large or run the other way. A potency beside an inconclusive call is a rough fit, not a confirmed value.

Molecular target: DNA polymerase eta (Homo sapiens) (UniProt Q9Y253)
Sequence of UniProt Q9Y253 (Q9Y253 whole entry, looked up): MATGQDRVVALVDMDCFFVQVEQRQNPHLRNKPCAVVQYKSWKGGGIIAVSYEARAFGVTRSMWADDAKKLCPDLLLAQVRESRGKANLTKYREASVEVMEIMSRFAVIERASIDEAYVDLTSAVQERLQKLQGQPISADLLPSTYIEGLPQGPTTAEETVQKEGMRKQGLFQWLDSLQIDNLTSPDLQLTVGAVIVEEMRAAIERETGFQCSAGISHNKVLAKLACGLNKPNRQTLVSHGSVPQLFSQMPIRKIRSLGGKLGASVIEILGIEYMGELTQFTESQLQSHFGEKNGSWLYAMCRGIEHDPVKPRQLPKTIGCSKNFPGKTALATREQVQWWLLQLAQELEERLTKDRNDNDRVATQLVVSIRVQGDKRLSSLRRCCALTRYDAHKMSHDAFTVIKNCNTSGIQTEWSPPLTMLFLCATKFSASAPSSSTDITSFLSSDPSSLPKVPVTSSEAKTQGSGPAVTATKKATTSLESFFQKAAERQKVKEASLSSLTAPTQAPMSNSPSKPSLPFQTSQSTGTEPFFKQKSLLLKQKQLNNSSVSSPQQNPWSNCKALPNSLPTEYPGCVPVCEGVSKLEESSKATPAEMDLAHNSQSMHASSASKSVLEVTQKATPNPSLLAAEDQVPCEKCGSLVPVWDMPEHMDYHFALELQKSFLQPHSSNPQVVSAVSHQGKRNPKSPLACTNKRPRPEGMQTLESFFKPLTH
Assay: qHTS for Inhibitors of Polymerase Eta
Conditions: recombinant Pol eta, fluorescent DNA replication assay; series mostly up to 114 µM
Method in brief: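 Fluorescent replication assay: 50 nM final substrate added after a 15 min room-temperature compound preincubation with 10 nM enzyme. Signal taken at 0 min and again at 10 min.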
Potency is read from the fitted curve at half-maximal effect; tags tell the direction and shape of the fitted curve.

| Structure (SMILES) | Potency |
| --- | --- |
| O=C(Nc1nc2nc(-c3ccccc3)cc(-c3ccccc3)n2n1)c1ccco1 | inconclusive: 28.2 µM [inhibitor, single point] |
| Cc1csc(NC(=O)C(F)(F)F)n1 | inconclusive: 89.1 µM [inhibitor, partial curve, poor fit] |
| Cc1ccc(S(=O)(=O)N(C)C)cc1-n1c(SCC(=O)N(C)C)nc2ccccc2c1=O | inconclusive: 89.1 µM [inhibitor, single point] |
| O=C(O)C1C2C=CC(O2)C1C(=O)NCCC1=CCCCC1 (stereo not given) | active: 50.1 µM |
| CC(=O)OCC1=C(C(=O)O)N2C(=O)C(NC(=O)c3ccc(F)cc3)C2SC1 (stereo not given) | inconclusive: 35.5 µM [inhibitor, full curve] |
| Cc1ccc(NC(=O)c2cc(-c3ccc(C)o3)nc3ccccc23)nc1 | active: 22.4 µM |
| O=C(O)c1ccc(S(=O)(=O)Nc2ccc(O)c(Sc3nc4ccccc4s3)c2)cc1 | active: 35.5 µM |
| O=C(CSc1nc(-c2cccs2)nc2cc(=O)[nH]n12)Nc1ccccc1 | inconclusive: 100 µM [inhibitor, single point] |
| N#Cc1cccc(C(c2nnnn2C2CCCC2)N2CCCCCC2)c1 (stereo not given) | inactive |
| COc1cc(/C=C2\C(=N)N3N=C(C)SC3=NC2=O)cc(OC)c1OCCOc1ccccc1C | inactive |
| COc1ccc2c(c1)n([O-])c1c([n+]2=O)CCC1 | active: 22.4 µM |
| O=C(/C=C/c1cccc(Cl)c1)N1CCC(Cc2ccccc2)CC1 | inconclusive: 28.2 µM [inhibitor, full curve, poor fit] |
| CCOc1ccc(NC(=O)CSc2nnc(CNC(=O)c3ccco3)o2)cc1 | inactive |
| CC(C)C[C@@H](CNCC(=O)[C@H](Cc1c[nH]c2ccccc12)NC(=O)c1[nH]cnc1C(=O)N[C@@H](C)CN)NC(=O)c1nc[nH]c1C(=O)N[C@@H](CC(=O)O)C(=O)O | inactive |
| CCC(CC)C(=O)Nc1cc([N+](=O)[O-])ccc1F | inconclusive: 39.8 µM [inhibitor, single point] |
| Cc1ccc(S(=O)(=O)/N=C2/NC(=O)/C(=C/c3ccc(Br)o3)S2)cc1 | active: 22.4 µM |
| O=C(C1CCCO1)N1CCN(c2ccc(F)cc2)CC1 (stereo not given) | inconclusive: 15.8 µM [inhibitor, partial curve, poor fit] |
| CC(=O)Nc1ccc(NC(=S)Nc2ccccc2)cc1 | inactive |
| CC(C)C(C)NC(=O)CSc1nc2scc(-c3ccco3)c2c(=O)n1-c1ccccc1 (stereo not given) | inconclusive: 10 µM [inhibitor, partial curve, poor fit] |
| COc1ccc(C2(c3ccc(OC)cc3)NC(=O)N(CC(=O)Nc3ccccc3C(F)(F)F)C2=O)cc1 | inconclusive: 25.1 µM [inhibitor, partial curve, poor fit] |
| CCC(=O)Nc1ccc(C(=O)NNC(=O)COc2cccc(C)c2)cc1 | inconclusive: 39.8 µM [inhibitor, single point] |
| Cc1sc2nc(COC(=O)c3ccc(N4CCCC4)c([N+](=O)[O-])c3)[nH]c(=O)c2c1C | inconclusive: 28.2 µM [inhibitor, single point] |

| Structure (SMILES) | Potency |
| --- | --- |
| CC1CCN(C(=O)c2ccc3c(c2)N(Cc2ccccc2F)C(=O)c2ccccc2S3(=O)=O)CC1 | inconclusive: 79.4 µM [inhibitor, partial curve, poor fit] |
| COc1ccc(-c2nn(CCC(=O)O)cc2/C=C2\SC(N)=NC2=O)cc1OC | active: 10 µM |
| O=C(CCCN1C(=O)c2cccc3cccc(c23)C1=O)Nc1nccs1 | inconclusive: 89.1 µM [inhibitor, partial curve, poor fit] |
| O=c1/c(=C/c2ccco2)sc2n1CN(c1ccccc1)CN=2 | inactive |
| CSc1ccc(S(=O)(=O)N2CCC(C(=O)NCCCn3ccnc3)CC2)cc1 | inconclusive: 100 µM [inhibitor, partial curve, poor fit] |
| Cc1cc(SCC(=O)OCC(=O)NC(C)c2ccccc2)c(C)cc1Br (stereo not given) | inconclusive: 56.2 µM [inhibitor, partial curve, poor fit] |
| C/C(N)=C(/C#N)C(=O)CSc1nn(-c2ccc(Cl)cc2)c(=S)s1 | inconclusive: 17.8 µM [inhibitor, full curve, poor fit] |
| COc1ccc(N=C2CCS(=O)(=O)c3sccc32)cc1 | inconclusive: 79.4 µM [inhibitor, partial curve, poor fit] |
| NS(=O)(=O)c1ccc(CNC(=O)c2cccc(S(=O)(=O)N3CCc4ccccc43)c2)cc1 | inconclusive: 35.5 µM [inhibitor, partial curve] |
| COc1cccc(CNC(=O)c2sc3ncccc3c2-n2c(C)ccc2C)c1OC | inactive |
| N#C/C(=C\c1cccs1)c1nc2ccccc2[nH]1 | inconclusive: 35.5 µM [inhibitor, single point] |
| COc1ccccc1C(=O)NC(=S)NNC(=O)c1sc2ccccc2c1Cl | inconclusive: 89.1 µM [inhibitor, partial curve, poor fit] |
| CC(=O)Oc1ccc(-c2cc3ccccc3oc2=O)cc1 | inactive |
| Cc1ccc2nc(-c3ccsc3)c(NC3CCCC3)n2c1 | inactive |
| O=c1[nH]c2ccccc2c(O)c1O | inactive |
| CCOC(=O)N1C(=O)NC(=O)C1c1ccccc1 (stereo not given) | inactive |
| O=C(COC(=O)c1ccc([N+](=O)[O-])o1)NCCCc1ccccc1 | active: 89.1 µM |
| C#CCOCCOCCOCCNc1nc(N2CCN(C(=O)CCCCCCCCCCNC(=O)[C@H]([C@@H](C)CC)n3cc(CCCCN=C(N)N)nn3)CC2)nc(N2CCN(C(=O)CCCCCCCCCCNC(=O)[C@H](CCCCN)n3cc(C)nn3)CC2)n1 | inconclusive: 56.2 µM [inhibitor, partial curve, poor fit] |
| CCCC1(c2ccccc2)NC(=O)N(CC(=O)Nc2cc(C)ccc2OC)C1=O (stereo not given) | inconclusive: 79.4 µM [inhibitor, partial curve, poor fit] |
| CCc1ccc(-n2nc(CO)c(C(=O)NCc3ccccc3Cl)n2)cc1 | inactive |
| Cc1cc(C)n2nc(CNS(=O)(=O)c3cccc(Cl)c3)nc2n1 | inactive |
| Nc1ccc(S(=O)(=O)NC2(C(F)(F)F)NC(=O)N(c3ccccc3Cl)C2=O)cc1 (stereo not given) | inconclusive: 100 µM [inhibitor, single point] |

| Structure (SMILES) | Potency |
| --- | --- |
| CC(C)N(C(=O)[C@H]1C[C@H](CC(=O)NC(C)(C)C)C(=O)N2CCc3c([nH]c4cc(-c5ccco5)ccc34)[C@]12C)C(C)C | inconclusive: 50.1 µM [inhibitor, partial curve, poor fit] |
| O=C(CSc1nc2ccccc2nc1Cc1ccccc1)N1CCc2ccccc21 | inactive |
| Cc1cccc(NC(=O)CSc2nc(-c3cccs3)nc3cc(=O)[nH]n23)c1 | inactive |
| O=C(NCCS(=O)(=O)N1CCN(c2cccc(Cl)c2)CC1)C(c1ccccc1)c1ccccc1 | inactive |
| CCOc1cc(/C=C2/SC(=S)N(CC(=O)O)C2=O)ccc1OC(=O)c1cccs1 | inconclusive: 89.1 µM [inhibitor, single point] |
| COc1cc(OC)c(OC)cc1/C=C1\Oc2cc(OS(C)(=O)=O)ccc2C1=O | active: 50.1 µM |
| O=CN(c1ccccc1)c1ccc2ccccc2c1 | inconclusive: 89.1 µM [inhibitor, partial curve, poor fit] |
| COc1ccc(CC(=O)N/N=C\c2cc(Br)c(O)c(Br)c2)cc1 | inconclusive: 56.2 µM [inhibitor, partial curve, poor fit] |
| c1ccc(CNc2ncnc3ccccc23)cc1 | inactive |
| O=C(Cn1cnc2cc([N+](=O)[O-])ccc2c1=O)Nc1cccc(S(=O)(=O)N2CCCCC2)c1 | inconclusive: 79.4 µM [inhibitor, partial curve, poor fit] |
| O=c1cc(COc2ccccc2Cl)nc2scc(-c3ccccc3)n12 | inconclusive: 89.1 µM [inhibitor, single point] |
| Cc1ccc(-c2noc(CCCC(=O)NCC3CCCO3)n2)cc1 (stereo not given) | inconclusive: 100 µM [inhibitor, partial curve, poor fit] |
| CCOc1cc(/C=C2/C(=N)N3C(=NC2=O)SN=C3S(=O)(=O)CC)ccc1OC(=O)c1ccco1 | active: 79.4 µM |
| CCc1nc2cccnc2n1-c1ccc(CC(=O)O)cc1 | active: 50.1 µM |
| Cc1cccc(Oc2cc([N+](=O)[O-])cc3c2C(=O)Nc2ccccc2O3)c1 | inconclusive: 10 µM [inhibitor, partial curve, poor fit] |
| C#CCOCCOCCOCCNc1nc(N2CCN(C(=O)CCCCCCCCCCNC(=O)[C@H](CCCCN)n3cc(C)nn3)CC2)nc(N2CCN(C(=O)CCCCCCCCCCNC(=O)[C@H](CCCN=C(N)N)n3cc(C[C@@H](C)CC)nn3)CC2)n1 | inconclusive: 56.2 µM [inhibitor, partial curve, poor fit] |
| COC(=O)Cn1ncc(N2C3CC(CC(C)(C)C3)C2C)c(Cl)c1=O (stereo not given) | inconclusive: 89.1 µM [inhibitor, partial curve, poor fit] |
| CC1=NN(c2ccc(Cl)c(C(=O)O)c2)C(=O)C1 | active: 22.4 µM |
| Cc1cc(C)cc(Nc2cc(C(=O)NC3CCC(C)CC3)c3ccccc3n2)c1 (stereo not given) | active: 89.1 µM |
| CCn1c(=O)sc2cc(NS(=O)(=O)c3ccc(C)cc3)ccc21 | inconclusive: 89.1 µM [inhibitor, partial curve, poor fit] |
| CCCOc1ccccc1C1CC(=O)NC(C)=C1C(=O)OCC(C)C (stereo not given) | inconclusive: 39.8 µM [inhibitor, partial curve, poor fit] |
